Assay results published in patent US5432264A (priority 1987, dated 1995).

Tested on: HSV

CC(C)C[C@H](NC(=O)OCc1ccccc1)C(=O)N[C@H](C(=O)NCC(=O)C=[N+]=[N-])C(C)C [Z-LVG-CHN2, N-benzyloxycarbonyl-leucyl-valyl-glycine diazomethyl ketone, reference compound] (Cbz-Leu-Val-Gly-CHN2)
number of plaques: not reduced

Peptide text beside a SMILES is read from it. * marks the point of attachment. Cbz = O=C(OCc1ccccc1)*; CHN2 = [N-]=[N+]=C*
